Sequences with one replicate were seen in a single cluster, so their values are uncertain.
System: ATP
Experiment: switch fluorescence ratio, 500 uM ATP over buffer (Cy3 cluster intensity, sum of 5 cycles each) (fold (ratio)); higher = stronger signal-on switching upon ATP binding; sequences stand for … in TCGTCGGCAGCGTCAGATGTGTATAAGAGACAGTTTTTTTTTTTTTTTTTTTTTTTTT…TC
Details: aptamer strand: ATP DNA aptamer (quencher-CACCTGGGGGAGTATTGCGGAGGAAGG + anchor), 100 nM annealed; ATP concentration: 500 uM; one replicate
Summary of the method: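 Per cluster, summed Cy3 intensity from the target cycles was divided by that from the buffer cycles to give the fluorescence ratio, then averaged per switch-domain sequence. Clusters outside 100-1000 RFU were excluded. The Cy3-labelled switching-strand clusters, on a modified Illumina MiSeq flow-cell, were annealed to 100 nM quencher-labelled ATP aptamer and imaged in selection buffer, then after 15 min with 500 uM ATP at 22 °C, for five cycles with NaOH stripping and re-annealing between them.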
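Note: ATP exposure 15 min at 22 °C before imaging.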

CGGTGGCCC
switch fluorescence ratio: 0.98

TTATTTACAA
switch fluorescence ratio: 1.01

TCAGAGGCAG
switch fluorescence ratio: 1.02

TAATAACTTC
switch fluorescence ratio: 1.05

TACTGTCACT
switch fluorescence ratio: 1.3

GTGGAATCAC
switch fluorescence ratio: 1.01

GAGAATGTGG
switch fluorescence ratio: 1.03

AGCGACCTTC
switch fluorescence ratio: 1.47

CATGCCCTGT
switch fluorescence ratio: 1.09

GGCACAGCGA
switch fluorescence ratio: 1.04

CATCTAGCCG
switch fluorescence ratio: 0.964

GTTATTACTC
switch fluorescence ratio: 1.04

TGCTTGCTAA
switch fluorescence ratio: 1.01

GCCCGTATTT
switch fluorescence ratio: 0.973

CGACAAAAGC
switch fluorescence ratio: 4.08

AGATATGTAA
switch fluorescence ratio: 1.02

AATTATTAGT
switch fluorescence ratio: 1.01

TCCGTCCCGG
switch fluorescence ratio: 1.07

AGCTTGACAG
switch fluorescence ratio: 1.03

CGGGCTGCCC
switch fluorescence ratio: 1.03

AGTCTGTCAT
switch fluorescence ratio: 0.975

TGTCGGGCGG
switch fluorescence ratio: 1.06

TTTGGATTAC
switch fluorescence ratio: 1.06

GACGTGTGTA
switch fluorescence ratio: 1.06

ATGGCGGGT
switch fluorescence ratio: 0.994

CGTTCTCATG
switch fluorescence ratio: 1.03

ACCACCCTT
switch fluorescence ratio: 1.06

GGATGCATTA
switch fluorescence ratio: 1.04

GCCTAAGCGG
switch fluorescence ratio: 1.02

GCGAGAAGGG
switch fluorescence ratio: 1.03

CTTGAGGTAT
switch fluorescence ratio: 1.03

GATGTCTCGC
switch fluorescence ratio: 0.962

TATTCCGAGC
switch fluorescence ratio: 1.54

CCAATTGGCG
switch fluorescence ratio: 1.02

GTGGAGAGAT
switch fluorescence ratio: 0.999

CGCGCGCTTT
switch fluorescence ratio: 1.06

AGCCCCGGGG
switch fluorescence ratio: 1

GGCCCTCAAT
switch fluorescence ratio: 1.06

AGTAACGTCA
switch fluorescence ratio: 1.07

AGAAGTTGCC
switch fluorescence ratio: 0.974

CGGAAGTGGA
switch fluorescence ratio: 1

AAGAAAGTTC
switch fluorescence ratio: 1.71

CTGTGTTCCG
switch fluorescence ratio: 0.917

TGGATTACG
switch fluorescence ratio: 1.01

GTTGTTGCGG
switch fluorescence ratio: 1.07

TGGGTCGGTT
switch fluorescence ratio: 0.978

CTTGACCGTC
switch fluorescence ratio: 1.1

ATAAGAGGGG
switch fluorescence ratio: 1

AGGGTTACGT
switch fluorescence ratio: 0.986

GTAGTCAGCA
switch fluorescence ratio: 1.03

TATGGAGATG
switch fluorescence ratio: 1.01

TGCTGGGTAA
switch fluorescence ratio: 0.98

GCCGTCTAGC
switch fluorescence ratio: 1.02

CTAGGCTTTC
switch fluorescence ratio: 1.11

GGATGGTCAA
switch fluorescence ratio: 1.01

TGTGCTACTC
switch fluorescence ratio: 1.07

ATCTGGTACT
switch fluorescence ratio: 1.05

AAGCAGGCCA
switch fluorescence ratio: 1.11

ATGTGACGGG
switch fluorescence ratio: 1.01

CGAATTCCG
switch fluorescence ratio: 0.842

ATTTCAGGAC
switch fluorescence ratio: 1.02

TTGGAAGACT
switch fluorescence ratio: 1.05

GTTGGCGAAC
switch fluorescence ratio: 1.06

CCCTTCGTTG
switch fluorescence ratio: 0.951

CCGGTGCTCT
switch fluorescence ratio: 1.25

CTTCAAGTTC
switch fluorescence ratio: 1.04

ACAAGTGGGT
switch fluorescence ratio: 1.02

GAGTTGAGTG
switch fluorescence ratio: 0.963

GTGGGATCGA
switch fluorescence ratio: 1.02

TAATTCCTCG
switch fluorescence ratio: 1.13

CCCTCTTGGT
switch fluorescence ratio: 1.09

AGAAAAACA
switch fluorescence ratio: 0.993

TACTCTAGTC
switch fluorescence ratio: 0.983

TCATAACCCC
switch fluorescence ratio: 1.08

TGTTTATAGG
switch fluorescence ratio: 0.983

TACATGGTAC
switch fluorescence ratio: 1

GATAGGATGA
switch fluorescence ratio: 0.974

ACGCCATTGT
switch fluorescence ratio: 1.04

GATACGGCCG
switch fluorescence ratio: 1.04

GCGCACGGGA
switch fluorescence ratio: 1.03

ATTGGGCTGG
switch fluorescence ratio: 0.985

GAGTTCCCCG
switch fluorescence ratio: 1.08

TGCAAGTGAT
switch fluorescence ratio: 0.986

CTCTGTTCTG
switch fluorescence ratio: 1

CAAAGATACT
switch fluorescence ratio: 1.05

CCAGTGCAAG
switch fluorescence ratio: 2.25

ACGCCTCTGT
switch fluorescence ratio: 1.04

GTACACTTCG
switch fluorescence ratio: 1.04

CCGCTGGTCA
switch fluorescence ratio: 1.39

CTTCGGCGTT
switch fluorescence ratio: 1.02

TGGTGCA
switch fluorescence ratio: 1.03

GATTAACCGC
switch fluorescence ratio: 1.14

AAGAGGCACA
switch fluorescence ratio: 0.98

GGAGGTTAGT
switch fluorescence ratio: 1.02

TATGTGGTTT
switch fluorescence ratio: 0.979

TGTCCTTTGC
switch fluorescence ratio: 1.02

CTTTTGTTGC
switch fluorescence ratio: 0.999

AATCAGGTGC
switch fluorescence ratio: 1.95

GAGATTGAGT
switch fluorescence ratio: 0.985

CTAATCCTTC
switch fluorescence ratio: 1.13

AGCGCGACGT
switch fluorescence ratio: 1.01

CATTCCCTTG
switch fluorescence ratio: 1.02

ACAGGCACTA
switch fluorescence ratio: 1.05

TAGTCTTGT
switch fluorescence ratio: 0.973

ATGGAATGAT
switch fluorescence ratio: 1.06

TAATTTGGT
switch fluorescence ratio: 0.97

CAAACGACTA
switch fluorescence ratio: 1.06

GGAGGAAGCC
switch fluorescence ratio: 0.956

ACAAAAAATA
switch fluorescence ratio: 0.998

GCGCGAAGAA
switch fluorescence ratio: 0.955

AGCGGCAATG
switch fluorescence ratio: 1.12

CCGTTGAGA
switch fluorescence ratio: 1.04

AGTCTTTGAG
switch fluorescence ratio: 0.99

AAACAATCGG
switch fluorescence ratio: 0.997

TGGTAGCATG
switch fluorescence ratio: 0.984

GAAGGCACTC
switch fluorescence ratio: 1.06

AAAATTGAAT
switch fluorescence ratio: 0.935

AGCGTAGCCG
switch fluorescence ratio: 0.977

CCGGTGATAT
switch fluorescence ratio: 1.38

AATGGGCCAT
switch fluorescence ratio: 0.954

ACTGTTGAAC
switch fluorescence ratio: 1.04

GTGTCTTAGT
switch fluorescence ratio: 1

GGGATCTCTG
switch fluorescence ratio: 0.956

TGGGGACGCC
switch fluorescence ratio: 0.947

GAGTCTGTAA
switch fluorescence ratio: 1.52

GTCCTAGGAG
switch fluorescence ratio: 1.01

TGTGATCGTG
switch fluorescence ratio: 1

CGCACGTGAG
switch fluorescence ratio: 0.94

AAAAAGAAGG
switch fluorescence ratio: 1.02

GCCTTGGAGG
switch fluorescence ratio: 0.996

ACAGGGCTTA
switch fluorescence ratio: 0.997

GTTTCAGACG
switch fluorescence ratio: 1.11

ATGTCAGTTT
switch fluorescence ratio: 1.01

AGCACACATC
switch fluorescence ratio: 1.1

GTCTTTAGTA
switch fluorescence ratio: 1

GCCTAGTCGT
switch fluorescence ratio: 1.04

TGCTGATAAA
switch fluorescence ratio: 0.994

TACTCATGAC
switch fluorescence ratio: 1.08

CAGAGCTACC
switch fluorescence ratio: 1.18

CCCCCGGGGA
switch fluorescence ratio: 1.25

CGACAGAGGG
switch fluorescence ratio: 0.99

GCGCATGAGT
switch fluorescence ratio: 1.01

GTGTGTCATG
switch fluorescence ratio: 0.953

TTATGGCCCC
switch fluorescence ratio: 0.953

GGGCGTATAG
switch fluorescence ratio: 1.07

GAAAGTTTC
switch fluorescence ratio: 1.02

ACGCTCTATG
switch fluorescence ratio: 1.05

CAATTAGGCT
switch fluorescence ratio: 1.01

GCGAATCAGA
switch fluorescence ratio: 1.03

AGCTGAGATC
switch fluorescence ratio: 0.987

GACTTAATAT
switch fluorescence ratio: 0.975

GGCGTTCAGA
switch fluorescence ratio: 0.992

TCGTAGTAGG
switch fluorescence ratio: 0.94

CGGGGCGTGG
switch fluorescence ratio: 1.07

TTAAGCTGGA
switch fluorescence ratio: 1.01

TGAGGAGCAT
switch fluorescence ratio: 1.02

GCCATCTTAC
switch fluorescence ratio: 1.07

CTTTTTCAGG
switch fluorescence ratio: 1.04

TGCGTATCTT
switch fluorescence ratio: 1.05

CGAACCATTT
switch fluorescence ratio: 1.05

GTCGTGGGTA
switch fluorescence ratio: 0.927

TTTCTCTCC
switch fluorescence ratio: 1.1

CCGTTCTAAT
switch fluorescence ratio: 1.07

TTATTATAT
switch fluorescence ratio: 0.984

CGACAGGTAC
switch fluorescence ratio: 2.38

ATAGAAATAT
switch fluorescence ratio: 1.04

ACCAGGTAAC
switch fluorescence ratio: 1.04

TGCATAAGG
switch fluorescence ratio: 0.993

CGCTAGGCTC
switch fluorescence ratio: 1.97

AGGAAACGA
switch fluorescence ratio: 1.02

TCGCCCTGGA
switch fluorescence ratio: 1.02

AGCATGGATT
switch fluorescence ratio: 1.02

ACAAAGTTCG
switch fluorescence ratio: 1.03

AGTTGCGAAA
switch fluorescence ratio: 1.01

ACGCCCTCGC
switch fluorescence ratio: 1.28

GCATGAGCG
switch fluorescence ratio: 1

TAGTATATCC
switch fluorescence ratio: 0.952

AGGCTAGTCT
switch fluorescence ratio: 0.939

CGGACGGGGT
switch fluorescence ratio: 0.984

ACTGCACCAT
switch fluorescence ratio: 1.34

GCGGCTTCA
switch fluorescence ratio: 1.02

GATCAGGGAG
switch fluorescence ratio: 1.03

GGCAGGCCCG
switch fluorescence ratio: 1.03

ATGACCCAGT
switch fluorescence ratio: 1.02

TGCCTGGGAT
switch fluorescence ratio: 0.967

CGGTGCCGTT
switch fluorescence ratio: 1.01

AATTTATCTC
switch fluorescence ratio: 0.999

CACGTGACGC
switch fluorescence ratio: 1.18

ACCCGAAACG
switch fluorescence ratio: 1.07

TGTTCAAATT
switch fluorescence ratio: 0.98

TCAGGGGCAA
switch fluorescence ratio: 1.39

ACGGTTTATT
switch fluorescence ratio: 1.04

TTATCATCGT
switch fluorescence ratio: 1.04

ATAAGTAATA
switch fluorescence ratio: 1.03

ACCCATGAGC
switch fluorescence ratio: 1.01

GTTAATGTTT
switch fluorescence ratio: 1.01

CGACAACGAA
switch fluorescence ratio: 1.04

TAACTTTACG
switch fluorescence ratio: 1.13

CGGTAAAAAT
switch fluorescence ratio: 1

CTCAAGCCCG
switch fluorescence ratio: 1.09

Source: the supplement of paper PMC10126150
